From US20250043002A1

Assays:
[1] = target: human CD28 on cells (endogenous on Jurkat/NFkB-Luc cells; human primary CD4+ T cells) (human) (UniProt P10747); test: cell-based or functional assay
[2] = target: human PD-L1 expressed on cells (HEK293/hCD20/hPSMA/hPD-L1; WSU-DLCL2/hPD-L1) (human) (UniProt Q9NZQ7); test: cell-based or functional assay
Sequence of UniProt Q9NZQ7 (Q9NZQ7 19-290): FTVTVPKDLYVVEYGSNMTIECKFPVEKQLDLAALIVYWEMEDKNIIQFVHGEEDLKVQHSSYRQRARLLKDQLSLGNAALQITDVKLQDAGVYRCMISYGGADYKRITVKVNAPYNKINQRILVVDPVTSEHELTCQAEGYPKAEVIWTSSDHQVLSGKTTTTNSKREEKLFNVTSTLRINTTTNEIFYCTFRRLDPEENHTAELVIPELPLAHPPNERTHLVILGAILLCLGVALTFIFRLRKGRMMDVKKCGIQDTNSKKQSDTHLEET

B1: Control 6: a bispecific antibody with one arm binding to PD-L1 (derived from parental antibody mAb9364) and the other arm binding to an unrelated antigen (bispecific antibody, part only; not given: Unrelated antigen arm, V domains shown, part only)
VH: EVQLVESGGGLVQPGRSLRLSCAASGFTFDDYALHWVRQAPGKGLEWVSGISWTGGTIDYADSVKGRFTISRDNAKNSLYLQMSSLRTEDTAIYYCTRDIRGNWKYGGWFDPWGQGTLVTVSS
VL: [left out - about 100 residues]
NFkB-luciferase MAX (RLU), Jurkat/NFkB-Luc + HEK293/hCD20/hPSMA [1]: 11400 RLU | NFkB-luciferase MAX (RLU), Jurkat/NFkB-Luc + HEK293/hCD20/hPSMA + CD20×CD3 [1]: 178000 RLU | NFkB-luciferase MAX (RLU), Jurkat/NFkB-Luc + HEK293/hCD20/hPSMA/hPD-L1 [1]: 17300 RLU | NFkB-luciferase MAX (RLU), Jurkat/NFkB-Luc + HEK293/hCD20/hPSMA/hPD-L1 + CD20×CD3 [1]: 145000 RLU | AP-1 luciferase EC50, WSU-DLCL2/hPD-L1 + Jurkat/AP1-Luc/hPD1 [2]: 874 pM | AP-1 luciferase MAX (RLU), WSU-DLCL2/hPD-L1 + Jurkat/AP1-Luc/hPD1 [2]: 1.1e+06 RLU
